Data published in the supplement of paper PMC10126150.
Values marked as one replicate rest on one cluster of the flow cell; about a third of the high ones do not repeat.

Tested on: ATP
Experiment: switch fluorescence ratio, 500 uM ATP over buffer (Cy3 cluster intensity, sum of 5 cycles each) (fold (ratio)); higher = stronger signal-on switching upon ATP binding; sequences stand for … in TCGTCGGCAGCGTCAGATGTGTATAAGAGACAGTTTTTTTTTTTTTTTTTTTTTTTTT…TC
Details: aptamer strand: ATP DNA aptamer (quencher-CACCTGGGGGAGTATTGCGGAGGAAGG + anchor), 100 nM annealed; ATP concentration: 500 uM; one replicate
Summary of the method: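 Per cluster, summed Cy3 intensity from the target cycles was divided by that from the buffer cycles to give the fluorescence ratio, then averaged per switch-domain sequence. Clusters outside 100-1000 RFU were excluded. The Cy3-labelled switching-strand clusters, on a modified Illumina MiSeq flow-cell, were annealed to 100 nM quencher-labelled ATP aptamer and imaged in selection buffer, then after 15 min with 500 uM ATP at 22 °C, for five cycles with NaOH stripping and re-annealing between them.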
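Further: ATP exposure 15 min at 22 °C before imaging.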

Row | Sequence | switch fluorescence ratio
1 | ACGAAATCAG | 1.04
2 | ACCTAGGGGC | 1.13
3 | AGAAACCAGA | 1.06
4 | TTTGGTGTT | 0.973
5 | TTATCTCAGA | 1.03
6 | CAATTTCGGG | 1.01
7 | AGTTGT | 1.04
8 | TCGATGGCGG | 0.978
9 | CATTTGATGT | 0.964
10 | CCTGTAGGGG | 1.01
11 | CGCGGTTTT | 0.976
12 | TTGGTGAAGC | 1.04
13 | AGGTCTCAAG | 0.957
14 | TAGTGGCCCA | 0.98
15 | TATACTAGGT | 1.03
16 | TTGACTACCG | 0.958
17 | ACAGTGCTG | 1
18 | GGGACGAAAT | 1.41
19 | AGCTAGGTCG | 1.13
20 | TGCCGCAT | 1.13
21 | ATAATAACGG | 1.04
22 | AAAGCCGATA | 1.07
23 | TTTTCGTCGT | 1.01

Row | Sequence | switch fluorescence ratio
24 | TGACTTATC | 1.11
25 | AATTAAAGAA | 0.973
26 | GTAAAACTCG | 0.852
27 | CTGCTCCC | 1.11
28 | TCTTGGAAAA | 1.01
29 | GACAGCTTGA | 1
30 | CGAGGTGTTG | 1.01
31 | TCTGAGTTAG | 0.969
32 | GGATCGTGTA | 0.999
33 | ACATGGGTCG | 0.962
34 | TGAGGTGCAC | 0.988
35 | CACGTAGGGC | 1.01
36 | CCCCGGATG | 1.85
37 | CTTCCACCTT | 1.13
38 | CGGCGAGCTT | 1
39 | TCATAACAGT | 0.994
40 | CGACAGGCTT | 1.05
41 | GCTCCAAGGG | 1.06
42 | GACTCGTAGG | 1.01
43 | CGCATGCTGT | 1.02
44 | CTTCAAGGGG | 1.03
45 | TTGTCTTAAT | 0.979
46 | TTTAAGCGAC | 1.85

Row | Sequence | switch fluorescence ratio
47 | CAAATCCTAG | 0.956
48 | CGTTGGGCGT | 0.976
49 | CGTGTCTCGC | 0.972
50 | CCCTGCGCCC | 2.51
51 | CCCCACACGG | 1.81
52 | TAAACTGGCA | 1.04
53 | TTTCCACCCG | 1.6
54 | GCCGGCTTAT | 0.974
55 | AAATCTATGT | 0.994
56 | CAGAACGCTA | 5.22
57 | ATGGACATGT | 0.982
58 | TGGTGGTTAG | 0.956
59 | CACTGCTATA | 1.46
60 | TCATCGGCGG | 0.976
61 | GCTTATCTT | 0.982
62 | CGACTCAGCG | 1.04
63 | GGGTAGGCG | 0.97
64 | GGCGGGTGCC | 1.02
65 | CGCTAGGCCG | 1.01
66 | TAACGAGCAG | 1.02
67 | TGTCATCAAG | 1.02
68 | GTGTTTGGAG | 0.988
69 | AGGGTCCGTG | 0.972

Row | Sequence | switch fluorescence ratio
70 | CGTAAAAGA | 1.01
71 | GGGATCTTGT | 0.978
72 | AGTGACGGCA | 1.05
73 | GGCCTGGCTG | 0.973
74 | TATTATGTAG | 0.974
75 | TTTCCTATGC | 1.39
76 | TTATGGGACC | 1.04
77 | CGGTCTTTTG | 0.997
78 | CTTTACCGGC | 0.979
79 | GCTTGCCAAT | 1.01
80 | ATTTCCGCTA | 3.3
81 | GCGTTTTAGT | 0.984
82 | GGCGTACTGC | 1.01
83 | GGAACCGGTG | 1
84 | TCTAGCAGTG | 0.96
85 | AACGATGCTT | 1.07
86 | GCTGTTGCG | 1.01
87 | GGGGGCTAG | 1.07
88 | GGAGTCCTGC | 0.921
89 | TCATTTTGTA | 1.02
90 | CATATGTATA | 1.01
91 | AATGTTGATG | 0.951
92 | TTAGGAACC | 0.993

Row | Sequence | switch fluorescence ratio
93 | TTCTTGTATT | 0.979
94 | CTGCTTTGTG | 1.01
95 | AGTGGCATTG | 0.992
96 | CTGGGTGTCA | 1.03
97 | GAAACAGGCG | 1.03
98 | GTGAGTATG | 0.947
99 | TCAACGATAC | 2.02
100 | TTCGGTGAGC | 1.01
101 | CCGATGGATG | 1.26
102 | CACGCATTTC | 4.41
103 | TTGACCTATT | 1.05
104 | TAACGGCGCT | 1.01
105 | CGCGCAACAG | 2.23
106 | GTCCTGAGG | 0.967
107 | GCTACGAGAT | 1.27
108 | AATCTAGCCA | 0.952
109 | CCGGGGGTAA | 1.11
110 | TTTATACAAT | 0.963
111 | AACGGAAGGG | 1.05
112 | ATTCCAAGCG | 1.1
113 | GCCCGGACTT | 1.04
114 | AGATAACACA | 1.02
115 | GTGGAGTTAC | 1.07

Row | Sequence | switch fluorescence ratio
116 | TGGTAAAATG | 0.951
117 | CATCGTTGCA | 0.981
118 | ATCCAACTCG | 1.02
119 | GAGGAGGTC | 0.957
120 | CAAGTCTGAG | 0.945
121 | CACGCCAGAC | 4.36
122 | TTGCACTCGC | 0.977
123 | TAGTCAGTTT | 0.988
124 | AGTAGTCAGG | 1.01
125 | CATCAAAGTG | 1.04
126 | TGGAACCTT | 1.67
127 | ATCGTTAGGG | 0.944
128 | GCTAATACGA | 2.58
129 | TGCACCAGAG | 1.08
130 | CACGACATTT | 1.09
131 | TGCCGAGGC | 0.986
132 | GCACTGGGTC | 0.995
133 | CGAACTGCTC | 1.11
134 | TAGACCA | 0.997
135 | CAACGGGTGG | 1.06
136 | TAAAATTTAC | 1.04
137 | CCGATTTGTT | 1.04
138 | TAGTTAAAAG | 1.01

Row | Sequence | switch fluorescence ratio
139 | CTCTGGCGAA | 1.43
140 | ACCGTTGGGC | 0.946
141 | GGTCTTATGA | 1
142 | GGGCATTTTA | 1.05
143 | TGCGATTTCG | 0.984
144 | AGGAATTCTC | 1.04
145 | AACAAGGTTC | 1.02
146 | TGATAAATCT | 0.994
147 | CGAGCTATAT | 4.06
148 | TAGACGCAGC | 1.11
149 | AGGATGAGTG | 1.06
150 | ATATGTCTTG | 1.01
151 | AAAGTTCATA | 0.993
152 | GCTTTAATGA | 1.05
153 | TTTAGTTGCG | 0.973
154 | GCATTTGGAT | 0.992
155 | ACGCAACCCC | 3.14
156 | ATTACGGATC | 1.75
157 | GAATGGCTC | 0.988
158 | TCGGCTCACG | 0.941
